According to PubChem BioAssay AID1240 (Sanford-Burnham Center for Chemical Genomics, 2008):
Out of some 50,000 compounds screened, about 800 (1.6%) showed an effect of 50% or more. Some of the results follow.

What follows are compounds tested against Bcl-2-like protein 10 (Homo sapiens) (UniProt Q9HD36) (assay: Phenotype converters, Bcl-B/TR3 peptide binding displacement, primary biochemical FP (AID 1240;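 note: 0% = Bcl-B with tracer peptide and DMSO and 100% = tracer peptide lacking Bcl-B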)). Settings: GST-Bcl-B / FITC-TR3 peptide fluorescence polarization; stronger effect = higher value; compound at 3.75 mg/L.
UniProt Q9HD36, sequence (Q9HD36 whole entry, looked up): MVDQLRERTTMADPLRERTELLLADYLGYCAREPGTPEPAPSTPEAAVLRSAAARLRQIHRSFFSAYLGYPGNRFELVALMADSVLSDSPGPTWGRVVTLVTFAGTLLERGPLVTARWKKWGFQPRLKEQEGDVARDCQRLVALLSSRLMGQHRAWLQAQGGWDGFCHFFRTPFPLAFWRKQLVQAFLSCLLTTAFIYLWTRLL
Nc1ccccc1C(=O)N=Nc1c(O)[nH]c2ccccc12 gave a displacement of 4.4%.
Compound CCN(CC)CCOC(=O)c1ccc(O)c(OC)c1 has a displacement of 3.8%.
O=S(=O)(c1ccccc1)N1CCN(Cc2ccccc2C(F)(F)F)CC1 was tested, and the displacement was -1.5%.
With Cc1ccc(N2C(=O)NC(=O)/C(=C\c3ccc(Br)s3)C2=O)cc1 the displacement was -33.3%.
COc1ccc(-c2occ(C(=O)O)c2C(=O)O)cc1 gave a displacement of 0.2%.
CCc1ccc(C2C(C(=O)OC)=C(C)NC3=C2C(=O)CC(C)(C)C3)s1 (stereo not given) was tested, and the displacement was 5.2%.
For C=CCN1C(=O)/C(=C\c2ccc(OS(=O)(=O)c3ccccc3)c(OC)c2)SC1=S, the displacement was 3.5%.
COc1ccc(C(=O)CSc2nc3c(c(-c4ccc(C)o4)c2C#N)CCCC3)cc1 showed a displacement of 7.6%.
Work on CCSCCOC(=O)C1=C(C)NC2=C(C(=O)CCC2)C1c1ccccc1OC(C)C (stereo not given) yielded a displacement of 2.9%.
O=C(N=Nc1c(O)n(CN2CCCC2)c2ccccc12)c1ccccc1Br showed a displacement of -6.3%.
Compound CNC(=O)CN(c1ccc(OC)cc1)S(=O)(=O)c1ccc(C)cc1 has a displacement of 7.8%.
In the case of O=C1N=c2ccc(Br)cc2=C1c1sc(=O)n(-c2cccc(Cl)c2)c1S, the displacement is reported as 2.1%.
O=C1C2ON(c3ccccc3)C(c3ccco3)C2C(=O)N1c1ccc(N2CCOCC2)cc1 (stereo not given) showed a displacement of 2.3%.
Work on O=C(Nc1ccc(NC(=O)c2ccc(-c3cccc(Cl)c3)o2)cc1)c1ccco1 yielded a displacement of 12.1%.
In the case of CCN1C(=O)/C(=C\c2cc(Cl)c(OCc3ccccc3)c(OC)c2)SC1=S, the displacement is reported as 7.3%.
CC(=O)N1N=C(c2ccc(Br)cc2)CC1c1cccc([N+](=O)[O-])c1 (stereo not given) gave a displacement of 9.1%.
O=C(N/N=C/c1ccccc1O)c1cc(C2CC2)[nH]n1 gave a displacement of -21.2%.
Cc1nc(C)c(C(=O)NNC(=O)c2cccc([N+](=O)[O-])c2C(=O)O)s1 showed a displacement of 10%.
With COC(=O)c1ccc(NC(=O)c2cncc(Br)c2)cc1 the displacement was 11.1%.
COc1ccc(C(=O)CC2(O)C(=O)Nc3ccc(Br)cc32)cc1 (stereo not given) gave a displacement of 2.7%.
Work on NC(=O)c1ccc(NC(=S)Nc2ccc(F)cc2)cc1 yielded a displacement of -8.2%.
Work on Cc1ccc(OCCOc2cccc(C=O)c2)cc1 yielded a displacement of 1.6%.
CC1(C)Cc2[nH]c(=O)c(C#N)cc2CO1 was tested, and the displacement was 2.2%.
Work on Cc1cccc(OCC(=O)Nc2cc([N+](=O)[O-])ccc2Cl)c1 yielded a displacement of 4.8%.
With Fc1ccccc1Cn1nnc(-c2ccccc2Cl)n1 the displacement was -12.5%.
Cc1cccn(C(=O)c2ccc3c(c2)OCO3)c1=NC(=O)c1ccc2c(c1)OCO2 gave a displacement of -12%.
Cc1ccc(N(CN2C(=O)c3ccccc3C2=O)C(=O)c2ccccc2)cc1 gave a displacement of -3.9%.
In the case of CCOC(=O)Nc1cccc(Nc2ccccc2)c1, the displacement is reported as -0.4%.
CCOC(=O)C(CC)C(C)=NNC(=O)c1ccc([N+](=O)[O-])cc1 (stereo not given) gave a displacement of 4.5%.
CCC(O)(C#CCN1CCCCC1)CC showed a displacement of -5.3%.
